This note sets out measurements from ChEMBL document CHEMBL4888484, “Replenishing the malaria drug discovery pipeline: Screening and hit evaluation of the MMV Hit Generation Library 1 (HGL1) against asexual blood stage Plasmodium falciparum ,using a nano luciferase reporter read-out” (2022).

Screen size: about 150,000 compounds; about 540 (0.36%) showed an effect of 50% or more. The list shows a part of the results.

For the assay, the system named is Plasmodium falciparum. The assay can be described thus: Primary screen in NF54 nanoGlo assay, in single point, at 2uM, 72h; a lower Z score goes with more inhibition. It is filed as functional, Erythrocyte. Conditions: timepoint 72 hour.
For the molecule `COC(=O)CNc1cc(C(=O)OC)cc(F)c1C`, the % Inhibition (in general, the change of the read-out against control, counted positive when it falls) is -10% and the Z score was 1.35.
On the same counts, the results for `CC(C)[C@H]1CN(C)CCN1C(=O)CC1(c2ccccc2Cl)CC(=O)N(CCN(C)C)C1=O` (stereo partly drawn) are 3% and -0.51.
With `COc1ccc(Cl)cc1-c1ncccc1C(=O)N1C[C@@H]2CC[C@H]1C2`, the “% Inhibition” value is listed as -21% and the Z score worked out at 2.7.
For `O=C(CCc1ccccc1)Nc1nc(CN2CCc3ccccc3C2)cs1` the same measures were 1% and -0.08.
As to `CCN1C(=O)CN(C(=O)c2ccn(CC)n2)CC12CCOCC2`, the “% Inhibition” value was found to be 3% and the Z score is on record as -0.39.
For the molecule `CCn1nc(C)cc1C(=O)OC1([C@H]2CCOC2)CC1`, the “% Inhibition” value was -14% and the Z score was 1.45.
For `O=C(N[C@H]1CC(=O)N(c2ccccc2)C1)N1CCN(Cc2ccccc2)CC1`, the “% Inhibition” value was found to be 11% and the Z score is given as -1.35.
Turning to `Cn1ncc(N2CC[C@H](CNC(=O)c3c[nH]nc3-c3cccc(F)c3)C2)cc1=O`, the “% Inhibition” value is 0% and the Z score is 0.06.
On the same counts, the results for `Cc1ccnc2nc(C(=O)N3CCCC4(CCCCC4)C3)nn12` are -8% and 1.11.
As for `Cc1ccc(Cl)cc1NC(=O)c1ccc2c(c1)nnn2C1CCCC1`, the “% Inhibition” value is recorded as 0% and the Z score is listed as -0.05.
For `COc1cccc(CN2CCN(S(C)(=O)=O)[C@@H](C)C2)n1` the same measures were 0% and -0.06.
As to `COC1CN(c2cc(-n3nc(C)c(Br)c3C)ncn2)C1`, the “% Inhibition” value is listed as -10% and the Z score was found to be 2.15.
On the same counts, the results for `CN1CCC(n2nccc2NC(=O)c2cn3ccsc3n2)CC1` are -9% and 1.77.
On the same counts, the results for `COc1ccc2[nH]c(CNS(=O)(=O)CC3CCCC3)cc2c1` are 8% and -0.73.
Regarding `CCC=C(C)C(=O)N1CCC(C(=O)NCC)CC1`, the “% Inhibition” value is given as -7% and the Z score worked out at 0.95.
In the case of `CC(C)n1c(=O)c2cn(S(=O)(=O)c3ccc(C(C)(C)C)cc3)nc2n(C(C)C)c1=O`, the “% Inhibition” value is listed as -3% and the Z score came to 0.54.
On the same counts, the results for `COc1ccccc1NC(=O)Cn1c(=O)n(C(C)C)c2ccc(S(=O)(=O)N3CCCC3)cc21` are 1% and -0.18.
On the same counts, the results for `COc1cccc(OC[C@@H](O)CNC(=O)NCc2nc(C)cc(C)n2)c1` are -1% and 0.2.
In the case of `COc1ccc(S(=O)(=O)c2cn(CC(=O)Nc3ccc(F)cc3)c3nc(C)ccc3c2=O)cc1`, the “% Inhibition” value is on record as -3% and the Z score amounted to 0.34.
Consider `Cc1nc(N(C)C[C@H](O)CO)nc2cc(S(C)(=O)=O)ccc12`, for which the “% Inhibition” value is listed as 1% and the Z score was -0.27.
For `O=C1C2C(Cc3ccc(O)cc3)NC3(C(=O)Nc4c(Cl)cccc43)C2C(=O)N1CC1CCCO1` (stereo not drawn) the same measures were -8% and 1.05.
Take `O=C(COc1ccc2ccccc2c1)N1CC(N2C(=O)C3CC=CCC3C2=O)C1` (stereo not drawn): the “% Inhibition” value is reported as -4% and the Z score was 0.46.
Regarding `CN(Cc1ccccc1)C(=O)C1CCN(C2CCN(C(=O)c3cc(Cl)cc(Cl)c3)CC2)CC1`, the “% Inhibition” value turned out to be 1% and the Z score is listed as -0.13.
On the same counts, the results for `CCCCN(C)S(=O)(=O)NCc1ccncc1OC[C@H]1CCOC1` are -7% and 1.38.
Regarding `Cc1c(C(=O)Nc2c(C)n(C)n(-c3ccccc3)c2=O)c(-c2ccccc2)nn1-c1ccccc1`, the “% Inhibition” value is on record as -32% and the Z score amounted to 3.8.
On the same counts, the results for `FC(F)(F)c1cccc(Cn2nnnc2N2CCCOCC2)c1` are 1% and -0.11.
Turning to `Cc1n[nH]cc1CNc1ccc(N2CCOCC2)nc1`, the “% Inhibition” value was -11% and the Z score amounted to 1.42.
As to `O=C(NCc1nnc(C2CC2)o1)c1noc2c1CCc1ccccc1-2`, the “% Inhibition” value is recorded as -6% and the Z score was 1.01.
For `CCCNC(=O)c1nc(CS(=O)(=O)c2ccccc2)no1` the same measures were -1% and 0.24.
Regarding `CC(=O)N(CCN1CCCCC1)[C@H]1CCCN(C(=O)c2ccn(C)n2)C1`, the “% Inhibition” value is listed as -7% and the Z score stood at 1.
Take `O=C(N[C@@H]1COC2(CCCCC2)C1)c1cccn2cnnc12`: the “% Inhibition” value was -1% and the Z score was 0.09.
In the case of `Cc1n[nH]c(NCC2(C)COC2)c1C#N`, the “% Inhibition” value is -18% and the Z score stood at 2.02.
For `CCc1nc(-c2ccc(-c3noc([C@H]4CC(=O)N(c5ccc(C)cc5)C4)n3)cc2)cs1` the same measures were -12% and 1.25.
Regarding `Cc1nnc(Cn2nnc(C(=O)NCCC3CC4CCC3C4)c2C)o1` (stereo not drawn), the “% Inhibition” value was -9% and the Z score is given as 1.06.
As for `CC(C)[C@H](CO)NC(=O)NCc1cc(-c2ccccc2Cl)on1`, the “% Inhibition” value is given as -7% and the Z score came out at 0.83.
In the case of `Cc1cc(C(=O)N(CC2CCN(C3Cc4ccccc4C3)CC2)C[C@H]2CCCO2)nn1C`, the “% Inhibition” value is given as -22% and the Z score is reported as 1.96.
As to `COc1ccc(OC)c([C@H](c2cc3c(cc2O)OCO3)N2CCCC2)c1`, the “% Inhibition” value amounted to 36% and the Z score is reported as -0.9.
For `Cc1ccsc1CN(Cc1ccccc1)C(=O)CN(C(=O)C1CCCC1)C1CCCCC1` the same measures were -2% and 0.35.
Regarding `CC(=O)Nc1cccc(C(=O)N(CCC(=O)N2CCNCC2)CC(C)C)c1`, the “% Inhibition” value worked out at 0% and the Z score is -0.04.
For `CCc1noc(C)c1C(=O)N(CCO)Cc1nccn1C` the same measures were -9% and 0.82.
In the case of `CC1OCCC1(C)NCCOc1ccccc1` (stereo not drawn), the “% Inhibition” value was 0% and the Z score worked out at 0.05.
In the case of `Cn1c(=O)c2cn3c(c2n(C)c1=O)[C@@H](c1ccc(F)cc1)Nc1ccccc1-3`, the “% Inhibition” value was 4% and the Z score is on record as -0.7.
On the same counts, the results for `CNC(=O)NCc1cn(Cc2coc(C(C)(C)C)n2)nn1` are 1% and -0.17.
Regarding `C[C@@H]1N[C@@]2(C(=O)Nc3ccccc32)[C@@H]2C(=O)N(c3cccc(Br)c3)C(=O)[C@H]12`, the “% Inhibition” value is listed as -11% and the Z score turned out to be 1.37.
`CCCN(CC(=O)NC)S(=O)(=O)c1ccc(Cl)cc1C`: the “% Inhibition” value is -4% and the Z score came out at 0.45.
For `CCc1noc(Cn2ccc(-c3ccsc3)n2)n1` the same measures were -18% and 2.02.
For `Cc1ccc2nc(NC(=O)C(=O)c3cccn3Cc3ccc(C)c(C)c3)sc2c1`, the “% Inhibition” value was -14% and the Z score was 1.29.
Take `COC(=O)c1ccc2c(c1)n(Cc1ncccn1)c(=O)n2C1CCCCC1`: the “% Inhibition” value is -21% and the Z score stood at 2.14.
As to `Cc1nc2ccc(NC(=O)COc3cccc4cccnc34)cc2s1`, the “% Inhibition” value is recorded as -20% and the Z score is 3.79.
Regarding `CC(C)(NCCCN1CCOC1=O)c1nccs1`, the “% Inhibition” value is reported as 11% and the Z score is recorded as -1.18.
Consider `C[C@@H](C(=O)Nc1ccc(Cl)cn1)N(C)CCOc1ccccc1`, for which the “% Inhibition” value is -9% and the Z score is given as 0.79.
As for `O=C(NC[C@H]1CCC(=O)N(Cc2ccccc2)CC1)C1CCCC1`, the “% Inhibition” value is -11% and the Z score is reported as 1.11.
Regarding `CCCN(C[C@H]1CCOC1)C(=O)Nc1cccc(CC)c1`, the “% Inhibition” value was determined as 0% and the Z score stood at 0.05.
As for `C=CC[C@]1(CO)CCCN(Cc2ccc3occc3c2)C1`, the “% Inhibition” value is listed as -11% and the Z score is reported as 1.74.
For `CCCc1cc(C(=O)N(C)[C@@H](C)c2nccs2)ccn1`, the “% Inhibition” value was -12% and the Z score is 1.37.
For the molecule `Cn1cnc2c1CCN(C(=O)Cc1ccc3cn[nH]c3c1)C21CCOCC1`, the “% Inhibition” value was -4% and the Z score came out at 0.69.
Take `CCN(CCc1nc2ccccc2[nH]1)S(=O)(=O)N1CCCC1`: the “% Inhibition” value is recorded as -4% and the Z score was found to be 0.6.
On the same counts, the results for `CCCCN(C)S(=O)(=O)NC1CCN2CCCCC12` (stereo not drawn) are -12% and 1.73.
On the same counts, the results for `CNC(=O)CCNS(=O)(=O)c1cc(N(C)S(C)(=O)=O)c(C)cc1C` are 2% and -0.23.
For the molecule `CCc1nnc(Cn2cc(-c3ccnc4ccccc34)nn2)s1`, the “% Inhibition” value is recorded as -2% and the Z score is 0.29.
For the molecule `CCCc1ncc(C(=O)N2CCCC2)s1`, the “% Inhibition” value was -10% and the Z score was 1.32.
Take `Cn1c(=O)c(C(=O)NCC2CCN(Cc3cccc(F)c3)CC2)nn(-c2ccc(Cl)cc2)c1=O`: the “% Inhibition” value is -9% and the Z score stood at 1.5.
For the molecule `Cc1nc(C)c(CN2CCC2(C)C)s1`, the “% Inhibition” value was determined as 9% and the Z score was -1.68.
On to `CCNC(=O)[C@H](C)NS(=O)(=O)CCC1CCCCC1`, for which the “% Inhibition” value stood at 15% and the Z score was -1.72.
Consider `O=C(CNC(=O)Cc1ccccc1)NCCCCOc1ccc(Cl)cc1`, for which the “% Inhibition” value is -3% and the Z score is given as 0.55.
With `CCN1CCc2cc(OC)c(OC)cc2C1C(NC(=O)c1ccccc1C)C(C)C` (stereo not drawn), the “% Inhibition” value is given as -5% and the Z score was determined as 0.69.
`Cc1cc(CN2CC[C@H](N3CCCCC3)C2)on1`: the “% Inhibition” value is listed as 1% and the Z score is -0.07.
As to `Cc1coc(C)c1C(=O)NC1CCCC1`, the “% Inhibition” value is reported as -9% and the Z score was found to be 1.16.
On to `CC(C)c1nnc2n1CCC1(CC2)CCN(C(=O)c2ccccc2)CC1`, for which the “% Inhibition” value came to 2% and the Z score is given as -0.16.
In the case of `CCCC(O)CN(Cc1ccccc1)CC1CC(c2ccc(Cl)cc2)=NO1` (stereo not drawn), the “% Inhibition” value is on record as -11% and the Z score was found to be 1.03.
Turning to `CCC(NC(=O)Nc1sc2c(c1C#N)CCCCC2)(C(F)(F)F)C(F)(F)F`, the “% Inhibition” value was determined as 3% and the Z score was -0.48.
With `CCN(C(=O)c1cnn2ccccc12)[C@H]1CCS(=O)(=O)C1`, the “% Inhibition” value was 10% and the Z score is -1.34.
On the same counts, the results for `C[C@@H](c1nc(C(C)(C)C)no1)N(C)Cc1ccc(Br)o1` are -8% and 1.33.
On the same counts, the results for `C[C@H](NC(=O)c1ccc(O)nc1)c1cc2ccccc2o1` are -2% and 0.25.
For `O=C(C1CCOC1)N1CCCC(c2[nH]ncc2Cc2ccccc2)C1` (stereo not drawn), the “% Inhibition” value is -13% and the Z score is on record as 1.63.
`Cc1cc(NC(=O)N(C)CCN(C)C2CCN(C)CC2)ccc1F`: the “% Inhibition” value was -6% and the Z score came out at 0.66.
On the same counts, the results for `Cc1cc(C(=O)N2CCC(n3cc(-c4ccccc4)nn3)CC2)c(=O)[nH]c1C` are -11% and 1.2.
Take `CC(C)n1ncnc1CN[C@H](c1cccc2ccccc12)C(F)(F)F`: the “% Inhibition” value stood at 9% and the Z score was -1.04.
For the molecule `CCOC(=O)C1CCN(C(=NC)NCc2ccccc2)CC1`, the “% Inhibition” value was -17% and the Z score was determined as 1.5.
On to `CC(C)C[C@@H](CN(C)C)NS(=O)(=O)c1cnc2c(cnn2C)c1`, for which the “% Inhibition” value is recorded as -5% and the Z score is reported as 0.75.
With `CC(C)[C@H]1CN(C(=O)c2cccn2C2CC2)C[C@@H]1C(=O)O`, the “% Inhibition” value is -1% and the Z score stood at 0.22.
As to `C[C@H](NC(=O)CCc1ccncc1)c1cc2n(n1)CCCC2`, the “% Inhibition” value is reported as 2% and the Z score is on record as -0.35.
For `CS(=O)(=O)N1CCN(S(=O)(=O)N2CCN(c3ccccc3Cl)CC2)CC1` the same measures were 5% and -0.74.
Turning to `Cc1cc(C)c2[nH]c(C)c(CC(=O)NC3(C(N)=O)CCCCCC3)c2c1`, the “% Inhibition” value is -3% and the Z score was determined as 0.45.
